Results reported in the RNAGym collection of RNA variant scans (doi:10.7554/elife.90254).
The source gives no read counts; variants with many changes may rest on few reads.

B1: LINE1-mini (parent)
chain: GGCAGAGCUCAACACAGCGUGGCAAAGUGGCUGUGGCUAGACUGCC

Variants of: B1
Experiment: self-cleavage, relative activity (ratio to wild type); higher = more cleavage; in vitro, sequencing; the parent is a self-cleaving ribozyme

Variant	self-cleavage
G1C A24C A25G U28A U43G	0.02
G1C A24C A41G	0.03
G1C A24C C37U	0.01
G1C A24G C31A G36A	0.01
G1C A24G C46A	0.25
G1C A24G G30C G35A U43C C45U	0.1
G1C A24G G33U	0
G1C A24G U32A C42G U43A	0.06
G1C A24U C37A	0.04
G1C A24U C37G A39G G40A	0
G1C A24U C45A	0.03
G1C A25C G30C	0.41
G1C A25C U28G	0.09
G1C A25G A26U	0.05
G1C A25U G29A	0.06
G1C A26C C46U	0.13
G1C A26C U34A G40A	0
G1C A26G C37G C46A	0
G1C A26G G29U G44C	0.06
G1C A26G G40C	0
G1C A26G U28G G33A	0.03
G1C A26U C31U	0.02
G1C A26U U28G	0.32
G1C A39C A41U	0.02

Variant	self-cleavage
G1C C3A A14C	0.16
G1C C3A A25G A26C G40A	0.06
G1C C3A A26G	0.27
G1C C3A C8A G19U G30C G35A G44C	0.96
G1C C3A C10A	0.11
G1C C3A C10A A11U A25U G35A G36U	0.01
G1C C3A C10G U28A	0.01
G1C C3A C23U C37U	0.12
G1C C3A G5A A24C U43G	0.03
G1C C3A G5A A41C	0.1
G1C C3A G5A G40U	0.14
G1C C3A G5C C18U U32G G36C	0.05
G1C C3A G7A C8U G27A	0.22
G1C C3A G7A C31U	0.22
G1C C3A G17A	0.09
G1C C3A G21C G22C C37A A39G	0.02
G1C C3A G27C	0.04
G1C C3G A4C A16U U38G G40A U43G	0.08
G1C C3G A24C	0.02
G1C C3G C8G C13A G22U	0.03
G1C C3G C45A	0.39
G1C C3G G5A A39U G44U C45U	0.03
G1C C3G G7C G19A G22C C23U	0.08
G1C C3G G19C	0.07

Variant	self-cleavage
G1C C3G G22A A24U	0.13
G1C C3G G27C G30C C42A	0
G1C C3G U28A	0.11
G1C C3G U38C G44C	0.34
G1C C3U A4C G40C	0.02
G1C C3U A4U U32C G35C	0.04
G1C C3U A11G A14U C31A	0.01
G1C C3U A14U A24U A26G U28G	0.01
G1C C3U A25G	0.06
G1C C3U G5A A12U A14C G27A	0.08
G1C C3U G19C C23U C42A	0.03
G1C C3U G21U G22U U32A	0.02
G1C C3U G27A	0.1
G1C C3U G27C	0.02
G1C C3U G29U	0.29
G1C C3U G44C	0.63
G1C C8A A12C A41U G44U	0.02
G1C C8A A26U	0.01
G1C C8A C10A C13A G27C G29A U43A	0
G1C C8A C10U G36U	0.01
G1C C8A G19C G27U	0.03
G1C C8A G21U U32A U38G G44A	0.04
G1C C8A G22A	0.04
G1C C8A G40A U43C	0.09

Variant	self-cleavage
G1C C8A U9A C23A	0.08
G1C C8A U9G A14U C18G A25U U32A	0
G1C C8G A12C G17A G44C	0.01
G1C C8G A16G A26C C37U	0
G1C C8G A16U C42G	0
G1C C8G A26C G40A	0.03
G1C C8G C15G G21A A41U	0.01
G1C C8G C37A G44A	0.01
G1C C8G G17A G21U C45A	0
G1C C8G G17C A39G G40A	0
G1C C8G G29U	0.04
G1C C8U A14G U28G G44U	0.02
G1C C8U A16G G22C	0.01
G1C C8U A26U	0
G1C C8U C10U C31U G36C	0.02
G1C C8U C13A G19C U28A	0.03
G1C C8U C15A U20G	0.04
G1C C8U C23G	0.01
G1C C8U U43A	0
G1C C10A A11U C23A A26G U34A G44A	0.01
G1C C10A A14C U32C G44A	0
G1C C10A A14G G19C G22U U32C G40U	0
G1C C10A A16U G29C	0.01
G1C C10A A25G G44A	0.02

Variant	self-cleavage
G1C C10A A25U	0.02
G1C C10A A26C U43C	0
G1C C10A C15G C31G	0.02
G1C C10A C18A C45U	0.02
G1C C10A C18A G33C	0
G1C C10A C31G	0
G1C C10A G30C	0.01
G1C C10G A14G G27A U43G	0
G1C C10G A16U	0
G1C C10G C42G	0.01
G1C C10U A12C G21A G30U C45U	0
G1C C10U A14G	0.04
G1C C10U A26C U32C U34G C46U	0.01
G1C C10U A26U	0.02
G1C C10U A41G	0.01
G1C C10U G17A G19U U32C	0
G1C C10U G21U A41U C42A	0.02
G1C C10U G22U A24G	0.01
G1C C10U U28A	0.02
G1C C10U U28G	0.01
G1C C13A A16G C18A U28A G30C A39U	0.02
G1C C13A A16G G36C	0.01
G1C C13A C15G	0
G1C C13A C31U G40C	0.02

Variant	self-cleavage
G1C C13A G21A U43G C46A	0.03
G1C C13A G27U U32C	0.07
G1C C13A G29U	0.01
G1C C13G C18G G19C G40C	0.01
G1C C13U A41G	0.01
G1C C13U C15A A41U	0.09
G1C C13U C23G U32C G40C	0.06
G1C C13U C37U	0.07
G1C C13U G17C G21A G22A A25C	0.02
G1C C13U U38C	0
G1C C15A C31A G44A C46A	0
G1C C15A C31G	0
G1C C15A C31U	0.02
G1C C15A G17A G27U G30C U32G U43C	0.01
G1C C15A U20C A26G G27U G44U	0.01
G1C C15A U28C U38A A39U	0.02
G1C C15G A41U C46A	0.01
G1C C15G C31A	0.19
G1C C15G C37G	0.03
G1C C15G G17U G22A U38C	0.01
G1C C15G G22U U43A	0
G1C C15G U20C G30C C37U C42G	0
G1C C15U G21U	0.19
G1C C15U G27A	0.26

Variant	self-cleavage
G1C C15U G40C	0.02
G1C C18A A24C G35A G36C	0
G1C C18A A25C	0
G1C C18A A25G	0.01
G1C C18A A26G G27A	0.01
G1C C18A A39G A41C	0
G1C C18A A39U	0.03
G1C C18A G29C G30U G40U C46A	0.01
G1C C18A U34G	0.02
G1C C18G C46U	0.03
G1C C18G G29U	0.18
G1C C18U C37G	0.07
G1C C18U G33U C46G	0.01
G1C C23A A41C	0
G1C C23A U43G G44C	0.01
G1C C23G A41U	0.41
G1C C23U G30C U34C G36C	0.01
G1C C23U U28C	0.13
G1C C31A A41U	0.02
G1C C37U A39U	0.06
G1C C37U C46U	0.01
G1C C37U U38A	0.04
G1C C37U U43C	0
